Results are given in words; binding and its absence hold for the method and conditions named. In cells and extracts the contact can be indirect. Some results given as binding are weak or reduced against the parent protein; the word gives no strength. Values belong to the substance of their own block, whether it stands above or below them.
Assays:
[1] = molecular target: full-length mouse DSCAM with a C-terminal His-tag (mouse) (UniProt Q9ERC8); experiment: co-IP; HEK293T cells cotransfected with DSCAM-His and NLGNs or NRXNs; lysate immunoprecipitated with anti-His, blotted with anti-GFP and anti-His; buffer 20 mM Tris pH 7.6, 50 mM NaCl, 1 mM EDTA, 0.5% NP-40
[2] = molecular target: NLGN2, construct of the co-immunoprecipitations of Figure 7A-C (mouse) (UniProt Q69ZK9); experiment: co-IP; HEK293T cells cotransfected with DSCAM-His or FLAG-ECD and NLGNs; lysate immunoprecipitated with anti-GFP; buffer 20 mM Tris pH 7.6, 50 mM NaCl, 1 mM EDTA, 0.5% NP-40
[3] = molecular target: NLGN3, construct of the co-immunoprecipitations of Figure 7A-C (mouse) (UniProt Q8BYM5); experiment: as above
[4] = molecular target: NLGN4, construct of the co-immunoprecipitations of Figure 7A-C (mouse) (UniProt B0F2B4); experiment: as above
[5] = molecular target: neuroligin1 (NLGN1), construct of the co-immunoprecipitations of Figure 7A-C (mouse) (UniProt Q99K10); experiment: as above
[6] = molecular target: NLGN1, construct immunoprecipitated with anti-FLAG antibody in Figure 8A (mouse) (UniProt Q99K10); experiment: co-IP; HEK293T cells cotransfected with NLGN1, NRXN1β and different amounts of DSCAM-His; lysates immunoprecipitated with anti-FLAG, blotted with anti-GFP, anti-FLAG and anti-His
[7] = molecular target: endogenous DSCAM of mouse brain (mouse (endogenous in brain)) (UniProt Q9ERC8); experiment: co-IP; WT mouse brain lysates immunoprecipitated with anti-DSCAM, blotted with anti-DSCAM and anti-NLGN1

The chains behind the UniProt entries cited, without tags or fusion partners. Where a name states a change or a piece, a line headed by the entry shows the natural chain unless it says otherwise. Residues count along the entry.
UniProt Q9ERC8: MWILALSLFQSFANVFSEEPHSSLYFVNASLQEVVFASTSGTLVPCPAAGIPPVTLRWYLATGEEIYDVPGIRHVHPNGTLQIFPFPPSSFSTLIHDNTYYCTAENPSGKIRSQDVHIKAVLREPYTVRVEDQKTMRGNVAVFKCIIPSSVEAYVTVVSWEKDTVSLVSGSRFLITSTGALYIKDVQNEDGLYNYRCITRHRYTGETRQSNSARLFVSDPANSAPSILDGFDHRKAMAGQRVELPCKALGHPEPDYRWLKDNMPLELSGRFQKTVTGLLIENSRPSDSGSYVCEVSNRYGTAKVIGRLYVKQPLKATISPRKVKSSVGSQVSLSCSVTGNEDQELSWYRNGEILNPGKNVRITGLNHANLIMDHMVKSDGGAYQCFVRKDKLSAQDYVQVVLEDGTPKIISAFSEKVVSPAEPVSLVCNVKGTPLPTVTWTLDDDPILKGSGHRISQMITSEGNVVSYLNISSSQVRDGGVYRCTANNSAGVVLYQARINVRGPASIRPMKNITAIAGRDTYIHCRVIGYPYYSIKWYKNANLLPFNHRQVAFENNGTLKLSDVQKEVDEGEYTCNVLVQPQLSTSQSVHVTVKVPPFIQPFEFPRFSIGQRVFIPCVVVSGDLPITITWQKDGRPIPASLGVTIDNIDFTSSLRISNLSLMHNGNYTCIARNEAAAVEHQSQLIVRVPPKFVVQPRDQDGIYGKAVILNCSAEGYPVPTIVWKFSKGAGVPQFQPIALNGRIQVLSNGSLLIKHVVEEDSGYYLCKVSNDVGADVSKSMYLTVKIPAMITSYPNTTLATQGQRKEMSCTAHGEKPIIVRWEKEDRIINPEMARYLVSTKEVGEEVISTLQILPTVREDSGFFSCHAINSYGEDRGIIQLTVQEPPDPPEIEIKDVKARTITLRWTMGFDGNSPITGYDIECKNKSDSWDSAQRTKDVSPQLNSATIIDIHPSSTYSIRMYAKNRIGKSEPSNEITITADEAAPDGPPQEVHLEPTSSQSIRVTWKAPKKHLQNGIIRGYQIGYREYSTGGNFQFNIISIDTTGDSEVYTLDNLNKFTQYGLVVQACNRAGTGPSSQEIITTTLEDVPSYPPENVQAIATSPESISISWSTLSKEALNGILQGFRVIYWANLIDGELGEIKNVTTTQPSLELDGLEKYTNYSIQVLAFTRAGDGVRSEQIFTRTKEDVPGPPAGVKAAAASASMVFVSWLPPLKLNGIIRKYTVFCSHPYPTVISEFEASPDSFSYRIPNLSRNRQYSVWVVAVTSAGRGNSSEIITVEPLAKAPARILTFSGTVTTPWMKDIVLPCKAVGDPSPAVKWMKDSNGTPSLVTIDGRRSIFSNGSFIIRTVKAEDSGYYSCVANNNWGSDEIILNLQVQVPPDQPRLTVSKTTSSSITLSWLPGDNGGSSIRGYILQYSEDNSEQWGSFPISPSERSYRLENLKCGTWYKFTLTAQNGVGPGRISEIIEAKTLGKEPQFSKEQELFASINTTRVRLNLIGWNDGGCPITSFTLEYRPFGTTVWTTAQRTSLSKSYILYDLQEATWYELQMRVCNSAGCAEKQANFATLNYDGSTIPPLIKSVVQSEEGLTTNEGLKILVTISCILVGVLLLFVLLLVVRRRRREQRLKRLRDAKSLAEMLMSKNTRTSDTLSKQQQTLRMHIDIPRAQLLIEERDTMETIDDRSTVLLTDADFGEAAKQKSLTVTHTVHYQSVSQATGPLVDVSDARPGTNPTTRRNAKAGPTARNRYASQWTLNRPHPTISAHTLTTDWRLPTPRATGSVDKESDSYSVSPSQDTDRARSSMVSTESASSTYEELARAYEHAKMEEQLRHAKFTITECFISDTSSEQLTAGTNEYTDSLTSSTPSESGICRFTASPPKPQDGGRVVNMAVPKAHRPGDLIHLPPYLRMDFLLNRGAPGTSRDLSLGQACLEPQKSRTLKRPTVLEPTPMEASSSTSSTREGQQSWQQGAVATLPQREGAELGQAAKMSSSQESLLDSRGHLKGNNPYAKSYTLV
UniProt Q69ZK9, residues 15-836: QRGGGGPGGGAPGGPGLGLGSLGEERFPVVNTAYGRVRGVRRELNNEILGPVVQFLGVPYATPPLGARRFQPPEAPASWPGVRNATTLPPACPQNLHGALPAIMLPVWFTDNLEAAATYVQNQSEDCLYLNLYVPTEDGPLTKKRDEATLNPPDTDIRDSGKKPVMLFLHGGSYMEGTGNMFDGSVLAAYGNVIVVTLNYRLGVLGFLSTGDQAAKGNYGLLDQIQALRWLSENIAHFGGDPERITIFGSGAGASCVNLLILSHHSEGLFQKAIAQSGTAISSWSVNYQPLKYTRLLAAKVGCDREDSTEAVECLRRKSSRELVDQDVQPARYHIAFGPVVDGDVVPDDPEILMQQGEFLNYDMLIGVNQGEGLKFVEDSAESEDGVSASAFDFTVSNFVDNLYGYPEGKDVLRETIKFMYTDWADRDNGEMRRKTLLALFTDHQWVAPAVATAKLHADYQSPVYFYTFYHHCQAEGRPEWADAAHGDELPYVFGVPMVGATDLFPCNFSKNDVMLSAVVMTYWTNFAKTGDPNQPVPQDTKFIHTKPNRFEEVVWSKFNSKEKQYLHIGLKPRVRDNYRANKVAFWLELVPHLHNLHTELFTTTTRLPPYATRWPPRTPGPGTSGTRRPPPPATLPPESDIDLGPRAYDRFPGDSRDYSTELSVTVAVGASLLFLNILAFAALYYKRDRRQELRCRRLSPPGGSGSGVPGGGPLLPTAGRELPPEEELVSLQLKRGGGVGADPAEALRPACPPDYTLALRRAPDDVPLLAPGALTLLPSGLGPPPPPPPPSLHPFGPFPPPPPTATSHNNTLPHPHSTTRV
UniProt Q8BYM5, residues 35-825: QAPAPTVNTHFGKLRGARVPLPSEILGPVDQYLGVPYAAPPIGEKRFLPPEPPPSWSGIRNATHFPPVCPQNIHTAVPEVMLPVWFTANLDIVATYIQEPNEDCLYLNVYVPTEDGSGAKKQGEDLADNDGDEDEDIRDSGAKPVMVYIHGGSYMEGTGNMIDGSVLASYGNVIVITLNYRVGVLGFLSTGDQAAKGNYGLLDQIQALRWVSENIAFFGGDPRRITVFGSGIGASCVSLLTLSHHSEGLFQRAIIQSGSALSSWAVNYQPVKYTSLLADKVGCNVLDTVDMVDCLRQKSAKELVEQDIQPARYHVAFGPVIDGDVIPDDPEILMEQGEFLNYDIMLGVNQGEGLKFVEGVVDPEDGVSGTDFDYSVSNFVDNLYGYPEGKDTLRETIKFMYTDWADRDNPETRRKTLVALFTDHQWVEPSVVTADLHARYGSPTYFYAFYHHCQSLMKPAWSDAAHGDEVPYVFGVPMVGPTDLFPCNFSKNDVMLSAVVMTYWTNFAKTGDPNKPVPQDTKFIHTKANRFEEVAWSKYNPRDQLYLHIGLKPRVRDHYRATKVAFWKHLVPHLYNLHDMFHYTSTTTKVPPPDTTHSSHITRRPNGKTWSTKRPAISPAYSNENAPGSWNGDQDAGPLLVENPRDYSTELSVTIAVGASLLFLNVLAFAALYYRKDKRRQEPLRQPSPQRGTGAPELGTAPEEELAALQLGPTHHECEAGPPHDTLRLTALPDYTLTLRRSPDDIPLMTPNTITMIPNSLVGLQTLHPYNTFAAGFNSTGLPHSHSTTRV
UniProt B0F2B4, residues 19-945: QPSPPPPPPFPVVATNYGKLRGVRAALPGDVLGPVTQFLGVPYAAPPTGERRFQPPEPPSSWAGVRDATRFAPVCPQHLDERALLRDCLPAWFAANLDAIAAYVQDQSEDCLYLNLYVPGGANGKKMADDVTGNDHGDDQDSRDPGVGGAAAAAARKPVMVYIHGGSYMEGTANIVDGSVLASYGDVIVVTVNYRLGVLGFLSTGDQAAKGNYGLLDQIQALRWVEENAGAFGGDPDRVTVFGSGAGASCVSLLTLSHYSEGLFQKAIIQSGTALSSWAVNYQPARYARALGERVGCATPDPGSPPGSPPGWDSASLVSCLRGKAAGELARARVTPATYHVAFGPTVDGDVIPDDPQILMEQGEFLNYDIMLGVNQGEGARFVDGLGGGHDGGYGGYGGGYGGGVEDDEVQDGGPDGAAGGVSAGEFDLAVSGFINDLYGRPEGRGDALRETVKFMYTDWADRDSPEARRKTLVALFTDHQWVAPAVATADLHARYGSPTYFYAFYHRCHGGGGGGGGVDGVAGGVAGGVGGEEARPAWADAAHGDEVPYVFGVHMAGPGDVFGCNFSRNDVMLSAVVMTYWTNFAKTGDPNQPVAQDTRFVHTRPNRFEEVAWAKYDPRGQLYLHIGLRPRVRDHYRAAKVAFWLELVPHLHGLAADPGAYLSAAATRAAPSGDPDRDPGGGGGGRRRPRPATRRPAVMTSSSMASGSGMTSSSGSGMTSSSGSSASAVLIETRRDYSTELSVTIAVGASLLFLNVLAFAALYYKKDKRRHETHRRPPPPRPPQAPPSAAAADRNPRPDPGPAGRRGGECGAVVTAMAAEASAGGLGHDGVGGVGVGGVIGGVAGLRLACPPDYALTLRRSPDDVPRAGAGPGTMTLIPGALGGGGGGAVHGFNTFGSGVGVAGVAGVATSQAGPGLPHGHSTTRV
UniProt Q99K10, residues 46-843: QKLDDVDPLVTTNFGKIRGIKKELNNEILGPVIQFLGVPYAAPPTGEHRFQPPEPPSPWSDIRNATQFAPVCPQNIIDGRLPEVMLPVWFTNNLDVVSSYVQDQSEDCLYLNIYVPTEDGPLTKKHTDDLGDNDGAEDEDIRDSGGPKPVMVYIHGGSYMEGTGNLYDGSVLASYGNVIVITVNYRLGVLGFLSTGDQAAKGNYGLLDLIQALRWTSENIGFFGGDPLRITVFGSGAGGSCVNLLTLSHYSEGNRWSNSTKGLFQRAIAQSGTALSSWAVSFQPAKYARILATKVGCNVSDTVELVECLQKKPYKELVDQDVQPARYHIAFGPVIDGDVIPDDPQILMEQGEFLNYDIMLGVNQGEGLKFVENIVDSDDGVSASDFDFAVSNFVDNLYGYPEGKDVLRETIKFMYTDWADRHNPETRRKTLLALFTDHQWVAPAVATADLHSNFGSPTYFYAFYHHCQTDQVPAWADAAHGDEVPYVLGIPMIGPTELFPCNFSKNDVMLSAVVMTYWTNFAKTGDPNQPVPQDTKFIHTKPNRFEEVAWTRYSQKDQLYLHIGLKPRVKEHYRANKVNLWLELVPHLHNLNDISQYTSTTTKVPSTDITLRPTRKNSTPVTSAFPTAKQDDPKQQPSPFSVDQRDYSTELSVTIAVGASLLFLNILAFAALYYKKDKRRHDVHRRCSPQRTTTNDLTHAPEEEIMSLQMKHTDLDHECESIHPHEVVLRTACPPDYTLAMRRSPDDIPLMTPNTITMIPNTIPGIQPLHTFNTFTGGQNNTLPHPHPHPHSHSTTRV
UniProt P0DI97, residues 47-468: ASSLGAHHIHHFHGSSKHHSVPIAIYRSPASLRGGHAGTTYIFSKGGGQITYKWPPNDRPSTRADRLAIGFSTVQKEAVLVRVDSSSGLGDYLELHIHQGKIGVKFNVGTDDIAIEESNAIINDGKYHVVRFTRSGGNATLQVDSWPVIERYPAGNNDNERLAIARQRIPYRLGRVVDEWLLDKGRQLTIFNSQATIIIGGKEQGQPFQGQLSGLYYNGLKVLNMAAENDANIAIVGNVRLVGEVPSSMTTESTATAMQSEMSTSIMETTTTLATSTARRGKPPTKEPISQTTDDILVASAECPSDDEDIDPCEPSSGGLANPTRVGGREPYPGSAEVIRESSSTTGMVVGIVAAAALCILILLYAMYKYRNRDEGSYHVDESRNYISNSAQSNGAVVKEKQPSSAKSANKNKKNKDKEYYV

Substance: full-length mouse DSCAM with a C-terminal His-tag (from UniProt Q9ERC8 18-2013)
binding [2]: binds
binding [3]: binds
binding [4]: binds
binding [5]: binds
binding [6]: binds

Substance: NLGN3, construct of the co-immunoprecipitations of Figure 7A-C (from UniProt Q8BYM5 35-825)
binding [1]: binds

Substance: NLGN2, construct of the co-immunoprecipitations of Figure 7A-C (from UniProt Q69ZK9 15-836)
binding [1]: binds

Substance: endogenous NLGN1 of mouse brain (from UniProt Q99K10 46-843)
binding [7]: binds

Substance: NRXN1α (from UniProt Q9CS84 31-1514)
binding [1]: no binding

Substance: FLAG-tagged secretable extracellular domain of DSCAM (from UniProt Q9ERC8 24-1594) (domain or fragment)
binding [2]: binds
binding [3]: binds
binding [4]: binds
binding [5]: binds

Second part, the substance after the results:

binding [1]: binds
Substance: NLGN4, construct of the co-immunoprecipitations of Figure 7A-C (from UniProt B0F2B4 19-945)

binding [1]: no binding
Substance: NRXN3α (from UniProt Q6P9K9 28-1571)

binding [1]: no binding
Substance: NRXN2α (from UniProt E9Q7X7 29-1710)

binding [1]: binds
Substance: neuroligin1 (NLGN1), construct of the co-immunoprecipitations of Figure 7A-C (from UniProt Q99K10 46-843)

binding [1]: no binding
binding [6]: binds
Substance: neurexin1β (NRXN1β), full length (from UniProt P0DI97 47-468)
